# Experimental data published in PubChem BioAssay AID504444 (National Center for Advancing Translational Sciences (NCATS), 2011).
# Among all 360,000 compounds or so, about 7,500 (2.1%) were called active. Roughly 20% stayed inconclusive and do not appear here. Calls follow the shape of the dose curve; as a rule, active = well fitted inhibition curve with a large enough effect; inconclusive = small, poorly fitted or top-dose-only effect, or effect the other way; inactive = flat fitted curve, though single readings scatter. This is a selection; strong and weak results do not stand in their true shares.
# Assay: Nrf2 qHTS screen for inhibitors; also: nearly all actives have a fitted effect of over 60% in size
# Settings: A549 ARE-Fluc reporter, luciferase luminescence, 18-24 h; series mostly up to 46 µM; activity change, negative = inhibition: at the top concentration
# Procedure, shortened: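 Nrf2 activity is the BugLite luminescence, read 15 min after reagent at room temperature, following CellTiter-Fluor cytotoxicity readout (30 min, 37C). Compound titrations were applied for 18-24 h to 5000 A549 ARE_Fluc cells/well in 5% FBS OPTI-MEM.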
# % is scaled to controls: 0 for no effect and ±100 for the full control effect; potency is read from the fitted curve at half-maximal effect.
SMILES,"activity change, negative = inhibition",Potency
Cc1ccc(-c2ccc(=O)n(Cc3ccc(F)cc3)n2)cc1,inactive: -14.3%,
CC(=O)C1=C(C)N(Cc2ccccc2)C(=O)N[C@@H]1c1cccc(C(F)(F)F)c1,inactive: -15.3%,
CCCN(CCC)CCCNC(=O)C1CCC(CNS(=O)(=O)c2cccc3nsnc23)CC1 (centres undefined),inactive: 5.95%,
Cc1ccc(C(C)(C)C)cc1S(=O)(=O)N1CCC(C(=O)N2CCN(c3ccc(O)cc3)CC2)CC1,,active: 9.2 µM
NC(=O)C1=C[C@@H](C2CCCCC2)C[C@@H](OCc2ccc(CO)cc2)O1,inactive: 0.627%,
CCC(CC)C(=O)Nc1ccc(-c2cn3cccnc3n2)cc1,inactive: -19.7%,
C=CC[C@@H](CC(=O)N[C@H](CO)Cc1ccccc1)C(=O)N[C@@H](COC(=O)[C@@H](CC=C)CC(=O)OC(C)(C)C)Cc1c[nH]c2ccccc12,inactive: 8.47%,
CC(C)(C)OC(=O)C[C@H]1C/C=C\C[C@H](CC(=O)N[C@H](CO)Cc2ccccc2)C(=O)N[C@@H](Cc2ccccc2)COC1=O,inactive: 0.148%,
C[C@H](NC(=O)c1nc[nH]c1C(=O)OCc1ccccc1)c1ccccc1,inactive: -28.1%,
Cc1ccc(S(=O)(=O)Nc2cccc(C(=O)NC3CCN(Cc4ccccc4)CC3)c2)cc1F,,active: 10.3 µM
Cn1c(=O)cc(OCC(=O)N2CCN(c3ccccc3F)CC2)c2ccccc21,inactive: 10.7%,
C#Cc1ccc([C@H]2C=C(C(=O)N3CCN(Cc4ccc5c(c4)OCO5)CC3)O[C@@H](OCC)[C@@H]2CCCO)cc1,inactive: -16.9%,
COC(=O)/C(=C1\Oc2ccc(C(C)(C)C)cc2S1)C(F)(F)F,inactive: 20.5%,
C[c-]1[c-](C)[c-](C)[c-](C)[c-]1C.[Fe].c1cc2nccc(N3CCCC3)[c-]2c1 (centres undefined),inactive: -20.1%,
O=C(COCc1cc(-c2ccc3c(c2)OCO3)on1)N1CCN(c2cccc(C(F)(F)F)c2)CC1,inactive: -26%,
COc1ccc(CN2C(=O)c3ccccc3C2C(=O)NC2CCCCCC2)c(OC)c1 (centres undefined),inactive: -18.8%,
Cc1ccc2c(c1)sc1nc(=O)n(-c3cccc(Cl)c3)c(=O)n12,inactive: 4.31%,
COc1cc2nc(N3CCN(C(=O)[C@@H]4CCCO4)CC3)nc(N)c2cc1OC,inactive: -5.69%,
CN1C(=O)S/C(=C\c2ccccc2OCc2ccc(C(=O)O)cc2)C1=O,inactive: -23.3%,
CCOC(=O)c1ccc(NC(=O)C2CCCN(c3cnccn3)C2)cc1 (centres undefined),inactive: 1.16%,
COc1ccc(CNS(=O)(=O)c2csc(C(N)=O)c2)cc1OC,inactive: -1.54%,
O=C(Nc1ccccc1)C1=C[C@@H](c2ccc(C(F)(F)F)cc2)C[C@@H](OCCCCO)O1,inactive: 25.2%,
O=C1N=C(N2CCOCC2)S/C1=C\c1ccc(-c2ccccc2Cl)o1,inactive: -3.47%,
Cc1ccc(S(=O)(=O)NC(C(=O)OCC(=O)NC(=O)c2cccn2C)C(C)C)cc1 (centres undefined),inactive: 6.3%,
